Hit rate of the full screen: of about 310,000 compounds, about 2,200 (0.71%) showed an effect of 50% or more. The effect is printed as a negative number. The list shows a part of the results.
Target: human ether-à-go-go-related gene (hERG) potassium channel (human, UniProt Q12809)
Assay: primary screen, population patch clamp on CHO cells stably expressing hERG

human ether-à-go-go-related gene (hERG) potassium channel, sequence (Q12809 whole entry, looked up): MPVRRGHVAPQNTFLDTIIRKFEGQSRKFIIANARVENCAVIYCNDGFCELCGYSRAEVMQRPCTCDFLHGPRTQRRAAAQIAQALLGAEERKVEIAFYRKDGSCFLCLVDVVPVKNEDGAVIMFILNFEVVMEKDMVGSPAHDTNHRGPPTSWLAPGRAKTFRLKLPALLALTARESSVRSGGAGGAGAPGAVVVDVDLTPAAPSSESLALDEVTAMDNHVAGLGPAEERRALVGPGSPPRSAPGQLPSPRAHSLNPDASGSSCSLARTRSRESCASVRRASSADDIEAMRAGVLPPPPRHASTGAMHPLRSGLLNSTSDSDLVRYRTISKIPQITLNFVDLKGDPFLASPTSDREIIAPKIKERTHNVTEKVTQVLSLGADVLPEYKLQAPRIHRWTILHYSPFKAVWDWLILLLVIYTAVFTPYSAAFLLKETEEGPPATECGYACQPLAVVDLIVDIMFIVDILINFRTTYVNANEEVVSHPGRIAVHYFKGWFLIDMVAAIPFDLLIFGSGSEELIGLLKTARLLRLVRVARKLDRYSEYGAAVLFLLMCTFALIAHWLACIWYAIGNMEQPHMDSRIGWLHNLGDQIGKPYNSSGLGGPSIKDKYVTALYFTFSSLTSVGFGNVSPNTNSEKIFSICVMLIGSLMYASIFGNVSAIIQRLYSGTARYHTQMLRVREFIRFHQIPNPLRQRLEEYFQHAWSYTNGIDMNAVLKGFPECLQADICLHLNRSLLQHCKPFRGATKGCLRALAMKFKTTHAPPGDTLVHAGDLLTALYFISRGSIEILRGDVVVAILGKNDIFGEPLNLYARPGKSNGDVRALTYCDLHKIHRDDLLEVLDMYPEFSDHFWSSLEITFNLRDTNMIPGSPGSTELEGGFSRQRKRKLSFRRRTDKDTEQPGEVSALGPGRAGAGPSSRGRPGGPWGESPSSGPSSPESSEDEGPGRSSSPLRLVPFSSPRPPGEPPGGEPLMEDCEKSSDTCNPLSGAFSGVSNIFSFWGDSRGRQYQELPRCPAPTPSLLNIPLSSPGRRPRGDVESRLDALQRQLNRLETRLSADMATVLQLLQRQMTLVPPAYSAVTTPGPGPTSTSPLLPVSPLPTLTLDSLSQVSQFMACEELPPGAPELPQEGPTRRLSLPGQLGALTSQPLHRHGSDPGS

Going from `Cc1ccc(C(C(=O)NCC2CCCO2)N(C(=O)c2snc(C(N)=O)c2N)c2ccc(C(C)C)cc2)o1` (stereo not shown) to `CN(CC1CCCO1)S(=O)(=O)c1ccc(C(=O)Nc2ccc3c(c2)OCO3)cc1` (stereo not shown), the “hERG current change (%, negative = inhibition) at 1uM” value falls from 16.5% to 9.53%.

Compared with `CCc1ccc(Nc2nc(C)cc(C)c2C(N)=O)cc1`, `Cc1cc(=O)oc2cc(NC(=O)c3cc4ccccc4o3)ccc12` is higher in “hERG current change (%, negative = inhibition) at 1uM” value: 7.64% for the first, 9.07% for the second.

Going from `O=C(Nc1ccc(NC(=O)c2cccs2)cc1)c1ccc(Br)o1` to `O=C(Nc1cccc(NC(=O)c2ccc(Br)cc2)c1)c1ccccc1`, the “hERG current change (%, negative = inhibition) at 1uM” value rises from 6.6% to 12.6%.

Compared with `CC1CCN(CCCNC(=O)C2CCCN(c3ncnc4c3nc3n4CCCCC3)C2)CC1` (stereo not shown), `CC1CCN(CC[C@H]2CCCN2S(=O)(=O)c2cccc(O)c2)CC1.Cl` is lower in “hERG current change (%, negative = inhibition) at 1uM” value: 11.6% for the first, -3.3% for the second.

Going from `CCCN(CC(=O)Nc1ccc(F)c(F)c1F)C(=O)Cn1c(=O)cnc2ccccc21` to `CN(Cc1c(F)cccc1Cl)c1nnnn1-c1ccccc1`, the “hERG current change (%, negative = inhibition) at 1uM” value rises from 0.188% to 11%.

Compared with `CCCCC1=CC2=C(c3ccco3)C(=O)C(C)(OC(=O)c3ccc(OC)cc3)C(=O)C2=CN1C1CCCCC1` (stereo not shown), `CCC(C(=O)OCC(=O)N1CCN(c2ccc(OC)cc2)CC1)c1ccccc1` (stereo not shown) is lower in “hERG current change (%, negative = inhibition) at 1uM” value: 8.24% for the first, 7.79% for the second.

First: Clc1ccc(C2=Nn3c(nnc3-c3cccs3)SC2)cc1
Second: COc1ccc(-c2nnnn2C)cc1S(=O)(=O)NCc1ccccc1
The “hERG current change (%, negative = inhibition) at 1uM” value of the first is lower: -1.98% for the first, 3.04% for the second.

Going from `Cc1ccccc1NC(=O)NCC1CCN(C(=O)OC(C)(C)C)CC1` to `COc1ccccc1N1CCN(C2CCCN(C(=O)CCC(C)=O)C2)CC1` (stereo not shown), the “hERG current change (%, negative = inhibition) at 1uM” value rises from 2.43% to 17%.

First: CNC(=S)N(CCCn1ccnc1)Cc1c(F)cccc1Cl
Second: COCCNC(=O)/C(C#N)=C/c1c(F)cccc1Cl
The “hERG current change (%, negative = inhibition) at 1uM” value of the first is lower: 8.71% for the first, 22% for the second.

Compared with `COCCCNC(=O)CCc1nc(-c2ccccc2Cl)no1`, `COc1ccc(OC)c2[nH]c(=O)c(CCNC(=O)Cc3cccs3)cc12` is lower in “hERG current change (%, negative = inhibition) at 1uM” value: 11.4% for the first, 2.63% for the second.

Compared with `COC(=O)c1cc2c(C)[nH]c(C)c2cc(C(=O)OC)c1=O`, `CCOC(=O)c1sc2nc[nH]c(=O)c2c1C` is higher in “hERG current change (%, negative = inhibition) at 1uM” value: 8.7% for the first, 12.6% for the second.

First: O=C1OCCN1C(=O)[C@H]1[C@H](c2ccc([N+](=O)[O-])cc2)C(c2cccc(Cl)c2)=NN1c1ccccc1
Second: Cn1c(C(=O)N2CCN(Cc3ccccc3)CC2)cc2c(=O)n(C)c3ccccc3c21
The “hERG current change (%, negative = inhibition) at 1uM” value of the first is higher: 10.5% for the first, 4.78% for the second.

Compared with `CCOC(=O)C1CCN(C(=O)Cn2c(=O)oc3cc(S(=O)(=O)N4CCCC4)ccc32)CC1`, `Cc1ccc(C)c(S(=O)(=O)N2CCN(CC(=O)Nc3ccc4c(c3)CCC4)CC2)c1` is lower in “hERG current change (%, negative = inhibition) at 1uM” value: 4.08% for the first, 3.13% for the second.

First: NNc1nc(-c2ccccc2Cl)nc2sc3c(c12)CCCC3
Second: Cc1nc2nc(-c3ccccc3)cc(=O)n2[nH]1
The “hERG current change (%, negative = inhibition) at 1uM” value of the first is higher: 16.4% for the first, 9.8% for the second.

Compared with `C[C@H]1O[C@H]1P(=O)([O-])[O-].[Na+]`, `CCOc1ccccc1C1C2CCCCC2(O)CCN1C(=O)c1cccs1` (stereo not shown) is lower in “hERG current change (%, negative = inhibition) at 1uM” value: 3.98% for the first, -1.66% for the second.

Going from `Cc1sc(N/N=C/C=C/c2ccccc2)nc1-c1ccccc1` to `Oc1ccccc1/C=N/n1c2ccccc2c2ccccc21`, the “hERG current change (%, negative = inhibition) at 1uM” value rises from 7.63% to 14.5%.

Going from `CCc1ccc2[nH]c3nc(SCCN4CCOCC4)nnc3c2c1` to `Cc1ccccc1-c1nnc(CN2CCN(C(=O)c3ccco3)CC2)o1`, the “hERG current change (%, negative = inhibition) at 1uM” value falls from 12.4% to -0.975%.

Going from `CC1(C)CC(=O)C/C(=N/NC(=O)CCCOc2ccc(Cl)cc2Cl)C1` to `COc1ccc(Br)cc1/C=N/NC(=O)CN1CCN(Cc2ccccc2)CC1`, the “hERG current change (%, negative = inhibition) at 1uM” value rises from -0.436% to 6.09%.

Going from `Cc1cc(NC(=O)CSCC(=O)N2CCN(c3cccc(C(F)(F)F)c3)CC2)no1` to `O=C(Nc1ccc2c(c1)CN(Cc1ccccc1O)CC2)C1CCCO1` (stereo not shown), the “hERG current change (%, negative = inhibition) at 1uM” value falls from 10.4% to 8.1%.

Compared with `CCN(CC)c1ccc(N2C(=O)/C(=C\c3cccnc3)SC2=S)cc1`, `COc1ccc([C@H]2CC(=O)C=C(c3ccc(O)cc3)C2)cc1OC` is higher in “hERG current change (%, negative = inhibition) at 1uM” value: 7.28% for the first, 18.6% for the second.

Going from `O=C(CO/N=C/c1ccc(OC(F)F)cc1)NC1CCCC1` to `Cl.NS(=O)(=O)c1ccc(CCNCc2ccccc2OCc2ccc(F)cc2)cc1`, the “hERG current change (%, negative = inhibition) at 1uM” value falls from -2.37% to -21.5%.

In the case of `Cc1cc(C)c(N)cc1C`, the “hERG current change (%, negative = inhibition) at 1uM” value was 9.5%.

Reference: publication PMC4336329 (PLoS ONE, 2015)
